Results published in EP4471063A1 (Medilink Therapeutics (Suzhou) Co., Ltd., dated 2023).

Target: human Her3 on tumor cells (human, UniProt P21860 20-1342)
Assay: cell-based or functional assay

B1: Her3-ADC-07 (other)
heavy: EVQLVESGGGVVQPGRSLRLSCAASGFTFSTYGMHWVRQAPGKGLEWVAVIWYDVSHKYYADSVKGRFTISRDNSKNTLSLQMNSLRAEDTAVYYCARDWGDPDAFDIWGQGTMVTVSS[… human IgG1 constant region …]
light: [… about 100 residues …][… about 100 residues …]
modifications: drug-linker DL-04 attached via S atom of a cysteine freed by TCEP reduction; 0-1 per light chain, position not stated; drug-linker DL-04 attached via S atoms of cysteines freed by TCEP reduction of disulfide bonds; 0-3 per heavy chain, positions not given
- EC50 of killing activity against NCI-H358 tumor cells (CCK8, 120 h): 0.183 µM
- EC50 of killing activity against PC-9 tumor cells (CCK8, 120 h): 0.0493 µM
